Assay results: PMC4065332, “PEX14 binding to Arabidopsis PEX5 has differential effects on PTS1 and PTS2 cargo occupancy of the receptor” (Febs Letters, 2014)
No constants are given. Whether binding was seen depends on the method and setting. For part of these data: Binding seen in cells or lysates may run through a third protein. Some entries that bind do so weakly or less than the wild type.

Assays:
[1] = target: T1, PEX5 (1–728), recombinant Arabidopsis PEX5 (Arabidopsis thaliana) (UniProt Q9FMA3); experiment: pull-down; PEX14N, PEX5C or PEX5 and lissamine-YQSKL (5 μM each) in PBS, 4 °C, 1 h; captured on Strep-Tactin resin by the StrepII tag of PEX14N; eluted with 7.5 mM desthiobiotin; anti-polyhistidine blot and fluorescence at 595 nm; both purified
T1 sequence: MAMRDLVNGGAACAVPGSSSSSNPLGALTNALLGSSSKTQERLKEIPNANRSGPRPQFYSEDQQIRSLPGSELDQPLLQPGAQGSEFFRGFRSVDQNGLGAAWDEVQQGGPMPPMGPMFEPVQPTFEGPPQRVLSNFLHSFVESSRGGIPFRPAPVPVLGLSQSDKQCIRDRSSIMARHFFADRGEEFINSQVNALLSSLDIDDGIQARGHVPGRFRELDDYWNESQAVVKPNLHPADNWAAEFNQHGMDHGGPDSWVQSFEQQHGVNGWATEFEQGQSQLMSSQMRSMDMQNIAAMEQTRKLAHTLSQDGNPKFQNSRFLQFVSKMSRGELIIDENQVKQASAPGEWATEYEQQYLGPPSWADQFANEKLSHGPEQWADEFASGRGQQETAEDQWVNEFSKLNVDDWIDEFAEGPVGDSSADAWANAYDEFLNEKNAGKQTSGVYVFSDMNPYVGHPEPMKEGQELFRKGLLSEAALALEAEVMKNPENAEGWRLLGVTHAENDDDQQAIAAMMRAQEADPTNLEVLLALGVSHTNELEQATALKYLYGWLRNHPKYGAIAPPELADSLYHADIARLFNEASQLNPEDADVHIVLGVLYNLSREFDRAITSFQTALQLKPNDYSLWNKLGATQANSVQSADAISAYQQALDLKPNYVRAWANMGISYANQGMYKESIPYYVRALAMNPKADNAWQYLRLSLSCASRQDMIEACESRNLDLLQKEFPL

[2] = target: T2, PEX5 (340–728), termed PEX5C (Arabidopsis thaliana, UniProt Q9FMA3 340-728); experiment: as above
T2 construct: Arabidopsis PEX5 residues 340-728; holds six of the nine W-X3-F/Y motifs and the TPR domain; lacks residues 314-334; also called His6-PEX5C; AtPEX5C; source: E. coli, purified via IMAC
T2 sequence (looked up): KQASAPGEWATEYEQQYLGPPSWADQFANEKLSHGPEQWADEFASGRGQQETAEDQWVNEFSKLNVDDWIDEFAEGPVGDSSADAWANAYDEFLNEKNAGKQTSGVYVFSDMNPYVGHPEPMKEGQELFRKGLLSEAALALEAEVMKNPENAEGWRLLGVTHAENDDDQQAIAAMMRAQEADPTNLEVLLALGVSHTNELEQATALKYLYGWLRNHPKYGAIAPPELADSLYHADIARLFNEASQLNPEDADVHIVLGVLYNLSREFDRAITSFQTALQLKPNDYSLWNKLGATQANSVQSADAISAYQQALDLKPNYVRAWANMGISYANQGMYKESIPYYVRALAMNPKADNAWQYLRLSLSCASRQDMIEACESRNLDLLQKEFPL

[3] = target: T2, PEX5 (340–728), termed PEX5C; experiment: pull-down; lissamine-YQSKL incubated with Ni–NTA in the presence or absence of PEX5C; eluted; PEX5C by anti-polyhistidine blot, peptide by fluorescence intensity at 595 nm; both purified
lissamine-YQSKL = target: T3, lissamine-YQSKL; experiment: fluorescence polarisation; fluorescence anisotropy; PEX14N titrated (3 μM to 1 nM in the results; 10 μM–1 nM in the methods) against constant PEX5C (100 nM) and lissamine-YQSKL (100 nM); HEPES 20 mM, NaCl 150 mM, pH 7.5; both purified
T3 sequence (peptide, lissamine label): YQSKL

[4] = target: T1, PEX5 (1–728), recombinant Arabidopsis PEX5 (Arabidopsis thaliana); experiment: pull-down; Arabidopsis cytosolic fraction (~6 mg/mL, 500 μL) depleted on Ni–NTA, incubated with hexahistidine-tagged recombinant protein (33 μM in 50 μL PBS), 4 °C, 1 h; captured on Ni–NTA, washed with PBS, eluted with 1 M imidazole; immunoblots against PEX5, PEX7 and thiolase; only the target purified
[5] = target: T4, Peroxisomal NAD+-malate dehydrogenase (pMDH1), recombinant (Arabidopsis thaliana) (UniProt O82399); experiment: as above
T4 sequence: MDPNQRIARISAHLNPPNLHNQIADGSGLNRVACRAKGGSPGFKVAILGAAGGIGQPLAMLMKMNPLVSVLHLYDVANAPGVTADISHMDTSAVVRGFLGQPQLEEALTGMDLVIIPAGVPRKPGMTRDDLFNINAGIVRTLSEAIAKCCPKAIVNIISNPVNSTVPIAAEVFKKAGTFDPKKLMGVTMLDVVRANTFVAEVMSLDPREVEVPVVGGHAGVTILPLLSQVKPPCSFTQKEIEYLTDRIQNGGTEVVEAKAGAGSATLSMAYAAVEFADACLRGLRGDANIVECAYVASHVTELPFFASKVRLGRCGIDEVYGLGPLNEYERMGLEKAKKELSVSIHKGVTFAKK

[6] = target: T5, Δ3,5,Δ2,4-Dienoyl-coenzyme A isomerase (DCI1), recombinant (Arabidopsis thaliana) (UniProt Q9FHR8); experiment: as above
T5 sequence: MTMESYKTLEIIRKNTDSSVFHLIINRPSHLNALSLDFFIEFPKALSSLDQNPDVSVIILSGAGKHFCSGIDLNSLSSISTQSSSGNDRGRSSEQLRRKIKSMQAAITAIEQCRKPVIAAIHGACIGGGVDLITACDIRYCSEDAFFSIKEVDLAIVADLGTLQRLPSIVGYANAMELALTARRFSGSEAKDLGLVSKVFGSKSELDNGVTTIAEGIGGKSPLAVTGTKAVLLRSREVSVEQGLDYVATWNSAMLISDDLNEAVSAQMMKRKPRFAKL

[7] = target: T2, PEX5 (340–728), termed PEX5C; experiment: far-Western, overlay or dot blot; purified PEX5 constructs pipetted onto nitrocellulose, blocked in 3% BSA PBS-T, probed 1 h with peptide-HRP (200 nM) or PEX14N-HRP (50 nM), ECL; for unloading then incubated with PEX14N 0.2 μM 1 h and 2 μM 16 h at 4 °C; both purified

In the case of YQSKL (lissamine label) [lissamine-YQSKL], the binding [1] is reported as “binds”, the binding [2] is reported as “binds” and the binding [3] is reported as “binds”.

B1: PEX5 (340–728), termed PEX5C (domain or fragment, UniProt Q9FMA3 340-728)
chain: T2 sequence (looked up)
For B1, the binding (lissamine-YQSKL) was “binds”.

B2: PEX7 (endogenous, Arabidopsis cytosol) (receptor, UniProt Q9XF57 1-317)
chain: MPVFKAPFNGYSVKFSPFYESRLAVATAQNFGILGNGRIHVLELAPGAPGVTESVSYDTADAVYDVCWSESHDSVLIAAIGDGSVKIYDTALPPPSNPIRSFQEHAREVQSVDYNPTRRDSFLTSSWDDTVKLWAMDRPASVRTFKEHAYCVYQAVWNPKHGDVFASASGDCTLRIWDVREPGSTMIIPAHDFEILSCDWNKYDDCILATSSVDKTVKVWDVRSYRVPLAVLNGHGYAVRKVKFSPHRRSLIASCSYDMSVCLWDYMVEDALVGRYDHHTEFAVGIDMSVLVEGLMASTGWDELVYVWQQGMDPRAS
With B2 the binding [4] was “binds” and the binding [5] was “binds”.

B3: PEX5 (endogenous, Arabidopsis cytosol) (receptor, UniProt Q9FMA3 1-728)
chain: T1 sequence
In the case of B3, the binding [6] is reported as “binds” and the binding [5] is reported as “binds”.

With CGGGYQSEL (coupled to HRP-maleimide (conjugated to the sulfhydryl)) [HRP–YQSEL (… coupled to HRP–maleimide)] the binding [7] was “no binding (tested: 200 nM)”.
